# Laboratory results from PubChem BioAssay AID894 (National Center for Advancing Translational Sciences (NCATS), 2007).
# Screen size: about 150,000 compounds; about 6,500 (4.3%) were called active. The inconclusive results got no clear call from the source; some entries with a clear call stand among them for comparison. The call rests on the fitted dose curve; in most records, active means well fitted inhibition curve with a large enough effect (not every such curve was filed as active); inconclusive means small, poorly fitted or top-dose-only effect, or another doubt; inactive means no such curve, though single readings can be large or run the other way. No potency is given beside an inconclusive call; the fits are too rough.
# Target: 15-hydroxyprostaglandin dehydrogenase [NAD(+)] (Homo sapiens) (UniProt P15428)
# Test: qHTS Assay for Inhibitors of HPGD (15-Hydroxyprostaglandin Dehydrogenase)
# Conditions: purified HPGD, NADH fluorescence kinetic, PGE2 substrate; activity change, negative = inhibition: hits give low values
# Method in brief: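 20 nM HPGD preincubated 15 min at room temperature with compound in 50 mM Tris-HCl pH 8, 0.01% Tween 20. Started with 1 mM NAD+ and 30 uM prostaglandin E2; NADH fluorescence (360/450 nm) read 5 times over 30-s intervals, last minus first.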
# On the % scale 0 is the no-effect control and ±100 the full control effect; potency means the concentration at half of the fitted maximal effect; tags describe the fitted curve by direction and shape.
# Chain of UniProt P15428 (P15428 whole entry, looked up): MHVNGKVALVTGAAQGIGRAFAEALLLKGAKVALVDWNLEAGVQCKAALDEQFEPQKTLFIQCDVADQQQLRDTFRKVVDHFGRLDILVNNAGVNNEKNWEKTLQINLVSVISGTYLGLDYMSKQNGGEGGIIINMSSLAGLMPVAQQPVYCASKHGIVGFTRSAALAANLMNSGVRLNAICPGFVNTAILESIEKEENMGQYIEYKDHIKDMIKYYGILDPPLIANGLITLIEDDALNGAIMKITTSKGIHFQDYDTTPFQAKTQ
SMILES,Potency,"activity change, negative = inhibition"
Cn1c(-c2ccc3c(c2)OCO3)cc(=O)c2ccccc21,"inconclusive [inhibitor, partial curve]",–
C[C@@H](NC(=O)c1coc(=O)c(Br)c1)c1ccccc1,"inconclusive [inhibitor, partial curve]",–
CN1C(=O)c2cccc3c(Cl)ccc(c23)C1=O,"inconclusive [inhibitor, partial curve]",–
CCCCN=c1scc(-c2ccc3c(c2)NC(=O)CO3)n1N=C1CCCC1,"inconclusive [inhibitor, partial curve]",–
Cc1cc(=O)[nH]c(-c2ccccc2O)n1,"inconclusive [inhibitor, partial curve]",–
Oc1cccc(-c2nc3ccc4ccccc4c3c3c2CCC3)c1,"inconclusive [inhibitor, partial curve]",–
COc1ccccc1Nc1nc(-c2sc(NC(=O)c3cccc(Cl)c3)nc2C)cs1,–,inactive: -22.3%
COc1cc(/C=N/NC(=O)C23CC4CC(CC(C4)C2)C3)cc(Br)c1O,"inconclusive [inhibitor, partial curve]",–
Cc1ccc(/C=N/NC(=O)Cc2cccn2C)s1,active: 7.08 µM,–
COCCNC(=O)CSc1nnc(CCCN2C(=O)c3cccc4cccc(c34)C2=O)n1-c1ccccc1,–,inactive: -17.4%
CNC(=S)N1N=C(c2ccc(Br)cc2)CC1c1ccc(OC)cc1 (stereo not given),active: 35.5 µM,–
O=C(NCc1n[nH]c(=S)n1-c1ccc(F)cc1)c1ccco1,"inconclusive [inhibitor, single point]",–
O=C(CCC(=O)c1ccc(F)cc1)Nc1cccc(S(=O)(=O)Nc2cccc(Cl)c2)c1,"inconclusive [inhibitor, partial curve]",–
O=C(CCC(=O)c1cccs1)c1cccs1,–,inactive: -28.5%
Cc1nc([N+](=O)[O-])nn1C12CC3CC(CC(Br)(C3)C1)C2,active: 14.1 µM,–
COc1ccccc1N(O)C1CC(=O)N(c2ccc(F)cc2)C1=O (stereo not given),active: 22.4 µM,–
CC(C)(C)c1ccc(C(=O)N2CCNCC2)cc1,"inconclusive [inhibitor, partial curve, poor fit]",–
COCCCNC(=O)/C(C#N)=C/c1ccc(OCC(=O)O)c(OC)c1,"inconclusive [inhibitor, single point]",–
CCSc1ncc(/C=N/Nc2ccc(F)cc2)n1C,–,inactive: -14.5%
COc1ccc(/C(C)=N\Nc2nc(-c3ccccc3)cc(=O)[nH]2)cc1,"inconclusive [inhibitor, partial curve]",–
